# Measurements from paper PMC7819943, “Rice protein-binding microarrays: a tool to detect cis-acting elements near promoter regions in rice”.
# The list shows a part of the results.
# Target: T1, OsWOX13 (Oryza sativa, UniProt Q5QMM3 1-267)
# T1 sequence: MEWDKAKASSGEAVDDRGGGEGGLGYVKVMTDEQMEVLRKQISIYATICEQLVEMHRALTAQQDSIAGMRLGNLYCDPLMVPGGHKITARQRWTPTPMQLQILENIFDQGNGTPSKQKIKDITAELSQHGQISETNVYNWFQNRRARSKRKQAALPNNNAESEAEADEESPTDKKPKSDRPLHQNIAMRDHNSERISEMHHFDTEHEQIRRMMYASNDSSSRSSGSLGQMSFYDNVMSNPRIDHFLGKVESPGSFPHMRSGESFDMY
# Test: protein-binding microarray (RPBM); PBS, 2% BSA, 51.3 ng/ul salmon testes DNA, 50 uM zinc acetate, 200 nM TF, 25 C, 1 h; high values mean tight binding
# Details: protein: recombinant; tags: N-terminal polyhistidine and DsRed monomer fusion (pET32a); label: CyDye5-dUTP incorporated in the synthesized complementary strand; 3' TTTTT single-stranded linker to array surface; dsDNA, one strand shown
# Method in brief: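 The binding signal for each feature is its fluorescence intensity in arbitrary units. An Axon 4000B scanner was used to read a custom Agilent array that had been made double-stranded with Cy5-dUTP primer extension, blocked with 2% BSA, incubated at 25 °C for 1 h with 200 nM protein in PBS, 2% BSA, salmon testes DNA and 50 µM zinc acetate, and washed. The protein was an N-terminal polyhistidine–DsRed transcription factor fusion from E. coli BL21-CodonPlus, purified on Ni–NTA.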
row,Sequence,binding signal
1,CTTTTAATTGGTTTTACAGTTTGGTGAAAGGTACAGCATGCGGAGTCACCTAGTGCAG,28000 fluorescence intensity (a.u.)
2,AGAGCACACTACACTCCGTTGATTGACCCTTCATGGCTAACGGAGTCACCTAGTGCAG,11400 fluorescence intensity (a.u.)
3,CAATGGTTGATTGCAACATATATATGTAGTGGCTGCAGCTCGGAGTCACCTAGTGCAG,14200 fluorescence intensity (a.u.)
4,CTGTCGTGTTTCCTCTGATTAGTTCATACAGCATCTGTTACGGAGTCACCTAGTGCAG,4150 fluorescence intensity (a.u.)
5,GAACTAACTGAGTGTCATATTGGAAGATGTGTAAAATTGCCGGAGTCACCTAGTGCAG,4150 fluorescence intensity (a.u.)
6,AAAGATAAATTTGACTGTGAATGTGAATATATGTTAATTACGGAGTCACCTAGTGCAG,8690 fluorescence intensity (a.u.)
7,CTATGATGATAGAGAACGTTACCATAATAGAGAACGTTATCGGAGTCACCTAGTGCAG,9610 fluorescence intensity (a.u.)
8,ACAAAATTTTGAACAAATGTGATGGTATGCCATTAGCTATCGGAGTCACCTAGTGCAG,4480 fluorescence intensity (a.u.)
9,CTCATAAGTTGATTTATAAGCATAAATAAGAGGGATTTGTCGGAGTCACCTAGTGCAG,11600 fluorescence intensity (a.u.)
10,TGTTAATTACTTGTTCTACTGCAGTTAATTAATGGATATGCGGAGTCACCTAGTGCAG,35300 fluorescence intensity (a.u.)
11,CCATTTCAACAGTTAATTTAGGCTATTTTGGCTTCAATCCCGGAGTCACCTAGTGCAG,4180 fluorescence intensity (a.u.)
12,GGCTCTCTGATTTGTTTGCGTTTGTGCAGCGCGTCTTCCCCGGAGTCACCTAGTGCAG,14500 fluorescence intensity (a.u.)
13,ACTCTAAATTAGTGTCTAAAGACAGGGACTAAAGTTAAGTCGGAGTCACCTAGTGCAG,9800 fluorescence intensity (a.u.)
14,ATTGACAGACACACCCGGTTGATGTACGTAATACTAACACCGGAGTCACCTAGTGCAG,22600 fluorescence intensity (a.u.)
15,TTTAATTTTGTTTGCGATCAAGCAGTCAAAATTCTCTGACCGGAGTCACCTAGTGCAG,18700 fluorescence intensity (a.u.)
16,GGATTGATGAAAGAATTCTGTGGACTTGGTTCTTTGATGGCGGAGTCACCTAGTGCAG,8550 fluorescence intensity (a.u.)
17,GCTTGTCCTTTTCAATTAGACATGTTGACATGGCAGTAGGCGGAGTCACCTAGTGCAG,5480 fluorescence intensity (a.u.)
18,GACGGATTGAATCGAGGCTTACCAAAACTAGGCATAGGCACGGAGTCACCTAGTGCAG,5640 fluorescence intensity (a.u.)
19,CTTTAACATAGATCTAATTGGCTTGAGTCAAACAAGAACACGGAGTCACCTAGTGCAG,17200 fluorescence intensity (a.u.)
20,CCTACTAACTCAATCTATAAATATAAGCATTTCTAGGTGCCGGAGTCACCTAGTGCAG,3470 fluorescence intensity (a.u.)
21,TATATATATATATATATATATATATATATAAAACACAAATCGGAGTCACCTAGTGCAG,3700 fluorescence intensity (a.u.)

row,Sequence,binding signal
1,GGTTGTAATAACGTGTAATTAATTGAGTTTTAATTATTTCCGGAGTCACCTAGTGCAG,12900 fluorescence intensity (a.u.)
2,TTTAACAATATTGTCAATTTACCAAAATTTTGATATTGCTCGGAGTCACCTAGTGCAG,14200 fluorescence intensity (a.u.)
3,ACTTTTATCACTGTCCATCTCCTCTATGCCGTGGACATGACGGAGTCACCTAGTGCAG,3240 fluorescence intensity (a.u.)
4,GTGCAAAATGATTAGAAGACCAAGAGAGTAGACTCGGTCACGGAGTCACCTAGTGCAG,11800 fluorescence intensity (a.u.)
5,CACTAATAATTTGCACCATTGATTTTAGTACGTTGTAGTTCGGAGTCACCTAGTGCAG,33600 fluorescence intensity (a.u.)
6,ACACATAGGTAATTAAGATTAATTGCGATCGAGATCATATCGGAGTCACCTAGTGCAG,33900 fluorescence intensity (a.u.)
7,TGCTCGTGATTGCAAATAATTCGCAACGCTACAGTAATCTCGGAGTCACCTAGTGCAG,6770 fluorescence intensity (a.u.)
8,ATCTTCTTGTAAATATTTAATTATAACGGATATAACAGTGCGGAGTCACCTAGTGCAG,3580 fluorescence intensity (a.u.)
9,ACTGATTGTCCAGCGCTATTCTGTTATGTGTGATTTTAACCGGAGTCACCTAGTGCAG,36500 fluorescence intensity (a.u.)
10,ATTGATTTCTATTTGTGAATCTCCATCTAAAGTTGGTGAACGGAGTCACCTAGTGCAG,32500 fluorescence intensity (a.u.)
11,GTACCATTGATCATATCTATGATTTGATTCTTTTATAAATCGGAGTCACCTAGTGCAG,3560 fluorescence intensity (a.u.)
12,AATCTTTTCTTAATTCTATAATTATCCTTAACGAATTAGTCGGAGTCACCTAGTGCAG,4150 fluorescence intensity (a.u.)
13,AAGTAAATTTAAATCTCAATCCAATAATATAACTTTTAATCGGAGTCACCTAGTGCAG,6270 fluorescence intensity (a.u.)
14,CTTAAATAATTTCATTAGATCACTTAACGCCTAAATTACTCGGAGTCACCTAGTGCAG,12700 fluorescence intensity (a.u.)
15,GGTAATTTCACGTTATTGTACTTGCCCTAAGGCAAGTGCTCGGAGTCACCTAGTGCAG,9570 fluorescence intensity (a.u.)
16,GAAATTGATTTATCCAGGGAAACTGTCGTGACAAATTTCGCGGAGTCACCTAGTGCAG,49300 fluorescence intensity (a.u.)
17,CTGAACTTAATTAGTGGTTGCCACAGAATCAATAAGCTCCCGGAGTCACCTAGTGCAG,14600 fluorescence intensity (a.u.)
18,GGAAGAATATAATGATTGCCACTTGTTCAGATGTAAAATCCGGAGTCACCTAGTGCAG,4780 fluorescence intensity (a.u.)
19,CTTAATTGCACCGGAGTTTCGTGCCGAACAGACCTGCCAGCGGAGTCACCTAGTGCAG,44300 fluorescence intensity (a.u.)
20,ATTGATTTATTGCTATAAATGCACCCCATCCTTTCACTTACGGAGTCACCTAGTGCAG,33100 fluorescence intensity (a.u.)
21,ATCAAAATTGACTCCTATTCTCGTAGAGTCGTATGGTGGCCGGAGTCACCTAGTGCAG,23100 fluorescence intensity (a.u.)
